About 14,000 (4.5%) of roughly 310,000 compounds showed an effect of 50% or more. The effect is printed as a negative number. The list shows a part of the results.
Molecular target: human ether-à-go-go-related gene (hERG) potassium channel (human, UniProt Q12809)
Experiment: primary screen, population patch clamp on CHO cells stably expressing hERG
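Also: peak tail current of the secondary pulse compared with the same well before compound.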

Chain of human ether-à-go-go-related gene (hERG) potassium channel (Q12809 whole entry, looked up): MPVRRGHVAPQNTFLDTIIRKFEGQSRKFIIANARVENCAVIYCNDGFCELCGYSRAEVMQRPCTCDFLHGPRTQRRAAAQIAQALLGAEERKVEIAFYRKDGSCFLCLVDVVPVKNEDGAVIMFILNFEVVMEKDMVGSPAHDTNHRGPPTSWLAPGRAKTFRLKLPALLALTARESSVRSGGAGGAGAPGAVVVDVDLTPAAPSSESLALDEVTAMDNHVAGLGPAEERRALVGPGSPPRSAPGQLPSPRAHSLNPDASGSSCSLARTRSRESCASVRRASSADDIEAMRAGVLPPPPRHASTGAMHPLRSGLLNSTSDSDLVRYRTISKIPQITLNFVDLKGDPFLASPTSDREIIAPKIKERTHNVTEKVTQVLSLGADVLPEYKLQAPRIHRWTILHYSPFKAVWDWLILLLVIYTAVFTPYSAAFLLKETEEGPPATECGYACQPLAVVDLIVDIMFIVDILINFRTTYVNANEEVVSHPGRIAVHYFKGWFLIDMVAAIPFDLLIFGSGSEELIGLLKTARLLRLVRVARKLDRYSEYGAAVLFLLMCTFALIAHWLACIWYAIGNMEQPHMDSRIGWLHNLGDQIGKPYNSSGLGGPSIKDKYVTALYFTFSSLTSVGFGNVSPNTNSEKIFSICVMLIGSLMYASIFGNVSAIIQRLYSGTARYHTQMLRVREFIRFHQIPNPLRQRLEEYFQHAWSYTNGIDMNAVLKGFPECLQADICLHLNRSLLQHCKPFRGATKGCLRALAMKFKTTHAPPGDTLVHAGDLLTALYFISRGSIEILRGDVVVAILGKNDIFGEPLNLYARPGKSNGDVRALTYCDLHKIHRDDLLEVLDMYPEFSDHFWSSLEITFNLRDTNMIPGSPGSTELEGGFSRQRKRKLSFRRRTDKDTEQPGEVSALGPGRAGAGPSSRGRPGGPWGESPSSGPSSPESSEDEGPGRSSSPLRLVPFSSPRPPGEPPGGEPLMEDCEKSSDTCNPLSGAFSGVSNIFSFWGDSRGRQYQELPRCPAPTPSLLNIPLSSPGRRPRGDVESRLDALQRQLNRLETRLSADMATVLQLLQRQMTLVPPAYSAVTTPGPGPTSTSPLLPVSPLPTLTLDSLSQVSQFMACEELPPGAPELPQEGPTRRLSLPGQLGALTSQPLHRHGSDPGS

Row | SMILES | hERG current change (%, negative = inhibition) at 10uM
1 | CS(=O)(=O)/C(C#N)=C\c1cnc(S(=O)(=O)c2ccccc2)s1 | 25.7%
2 | CN(C)Cc1c(C(=O)N/N=C/c2cccs2)nnn1-c1nonc1N | -26.9%
3 | C=CCOC(=O)C1=C(C)OC(N)=C(C#N)C1c1c(C)nn(-c2ccccc2)c1Cl (stereo not drawn) | -19.5%
4 | CC1=C(C(=O)Nc2ccccc2C(=O)NCc2ccccc2)SCCO1 | 9.8%
5 | Cc1cc(OCC(=O)c2ccc(F)cc2)ccc1N1C(=O)CCC1=O | 5.87%
6 | COc1cc2[nH]c(C(=O)Nc3ccc(F)cc3)cc2c(OC)c1OC | 10.5%
7 | Cc1ccccc1NC(=O)Cn1nnc(C(=O)NCc2ccco2)c1N | -8.17%
8 | Cc1cnc(C(=O)NC2CC(C)(C)Cc3c2cnn3-c2ccccc2)cn1 (stereo not drawn) | -39%
9 | Cc1cc(S(=O)(=O)Nc2cccnc2)c(C)s1 | -5.93%
10 | CC(C)(CO)Nc1nc(Nc2ccccc2)nc(Nc2ccccc2)n1 | 7.53%
11 | COc1ccc(NC(=O)c2c(Cl)cnn2C)c(C)c1 | -4.52%
12 | Cc1ccccc1-c1nc(CS(=O)CC(=O)NC2CCCCC2)c(C)o1 (stereo not drawn) | -3.19%
13 | CCCCc1c(C)nc2nc(SCc3ccc(Cl)cc3)[nH]n2c1=O | -12.8%
14 | CCc1cccc(CC)c1NC(=O)COn1nnc2ccc(C(F)(F)F)cc21 | 12.5%
15 | Cc1nc2cc(C(=O)OCC(=O)N(CC(C)C)C3CCS(=O)(=O)C3)ccc2n1-c1ccccc1 (stereo not drawn) | -1.56%
16 | Cc1ccc(S(=O)(=O)c2nnn3c2nc(N2CCCCC2)c2ccccc23)cc1 | 0.461%
17 | O=C(NNS(=O)(=O)c1ccccc1)C1CC(c2cccnc2)=NO1 (stereo not drawn) | 10.1%
18 | CCCCSc1nc2c(c(=O)n1CC)SC(C)C2 (stereo not drawn) | -18.5%
19 | Cn1nc(C(=O)NCc2ccc(Cl)cc2)c2c1-c1ccccc1S(=O)(=O)C2 | -16%
20 | CCC(C(=O)NCc1ccco1)N(C(=O)CNS(=O)(=O)c1ccc(C)cc1)c1ccccc1F (stereo not drawn) | -6.74%
21 | C=CCn1c(O)c(C(C)=Nc2ccc(C(=O)O)cc2)c(=O)[nH]c1=O | 3.26%
22 | COc1ccccc1NC(=O)c1ccc(NC(=O)CSc2nc(N)cc(=O)[nH]2)cc1 | 15.3%

Row | SMILES | hERG current change (%, negative = inhibition) at 10uM
23 | Cc1cccc(Nc2nc(N)nc(CN3CCC(C)CC3)n2)c1C | -37.6%
24 | CC1CCCCC1NC(=O)CCCCCn1c(=S)[nH]c2ccccc2c1=O (stereo not drawn) | 7.63%
25 | CCc1ccc(NC(=O)Cn2ccn(-c3cccc(Cl)c3)c(=O)c2=O)cc1 | -7.83%
26 | CCc1cc(CNC(=O)CC2C(=O)NCCN2Cc2ccccc2C(F)(F)F)on1 (stereo not drawn) | 10%
27 | CC(C)CC(COCc1ccc([N+](=O)[O-])cc1)N1CCN(C(=O)c2ccc(C(F)(F)F)cc2)CCC1=O (stereo not drawn) | -67.1%
28 | Fc1ccc(CNC(=S)Nc2ccc(OC(F)F)cc2)cc1 | -20.6%
29 | CN(C)/C=C1\N=C(c2ccccc2)OC1=O | 3.09%
30 | COc1ccc(Nc2ccc(C(N)=O)cc2[N+](=O)[O-])cc1 | 7.18%
31 | Cc1cc(F)ccc1S(=O)(=O)Nc1ccc(O)c(Sc2ncn[nH]2)c1 | 18.3%
32 | CCOC(=O)C1CCN(CC(O)COc2ccc(C(C)(C)C)cc2)CC1.Cl (stereo not drawn) | -70.4%
33 | N#Cc1c(N)n(-c2cccc(O)c2)c2nc3ccccc3nc12 | -8.47%
34 | COc1ccc(C(=O)Nc2c(C)cc(C)cc2C)cc1OC | 8.83%
35 | COc1ccc(O)c(C(=O)c2cc(C#N)c(=O)n(-c3ccc(Cl)cc3)c2)c1 | -46.2%
36 | C=CCn1c(=O)[nH]c2nc3cc(N=CN(C)C)c(C)cc3nc2c1=O | -1.61%
37 | Cc1cccc(C)c1OCc1cc(C(=O)NCC2COCCO2)no1 (stereo not drawn) | 2.39%
38 | CC(C)C(=O)Nc1c(C(=O)c2ccc(F)cc2)oc2ccccc12 | -5.9%
39 | CCOC(=O)c1ccc(N=c2sc(C(=O)OC)cc(=O)n2CCCN2CCOCC2)cc1.Cl | -16.9%
40 | COC(=O)C1CCN(C(=O)c2ccc(SC)cc2OC)CC1 | -6.71%
41 | Cc1cc(C)n2nc(C(=O)NCc3ccco3)nc2n1 | 9.78%
42 | CCc1nnc(NC(=O)CSc2nnnn2-c2cccc(C(C)=O)c2)s1 | 23.3%
43 | CS/C(Nc1cc(Cl)ccc1Cl)=C(/C#N)C(=O)c1ccco1 | 17.2%
44 | COc1ccc(S(=O)(=O)N2CCOCC2)cc1NC(=O)CSc1n[nH]c(C(C)C)n1 | 19.8%

Row | SMILES | hERG current change (%, negative = inhibition) at 10uM
45 | COC(=O)c1ccc(SCc2cnc(Cl)s2)cc1 | 1.27%
46 | O=C1CCc2cc(OCCCCc3nnnn3C3CCCCC3)ccc2N1 | -64.1%
47 | CCOc1ccc(CN2CCN(Cc3ccon3)CC2CCO)cc1 (stereo not drawn) | -62.8%
48 | Cc1ccc(C(=O)NCCCNc2ccc(C(F)(F)F)cc2[N+](=O)[O-])cc1 | 9.3%
49 | CCOC(=O)C1=C(C)N(C)C(=O)NC1c1cc2c(cc1[N+](=O)[O-])OCO2 (stereo not drawn) | 16.8%
50 | O=C(c1ccccc1)N1N=C(c2ccccc2)CC1c1ccccc1 (stereo not drawn) | 17.5%
51 | COc1ccc(S(=O)(=O)N(CC(=O)NCC2CCCO2)Cc2ccccc2)cc1 (stereo not drawn) | -19.3%
52 | COc1ccc(N2CC(C(=O)Nc3nnc(SCc4ccccn4)s3)CC2=O)cc1 (stereo not drawn) | -12.3%
53 | O=C(Nc1cccc(F)c1)c1cccnc1NCCc1ccccc1 | -8.33%
54 | Cc1ccccc1Cn1c(=O)[nH]c2ccccc21 | -1.88%
55 | Cc1cc(C)nc(/N=C2\NC(=O)CC(C(=O)O)N2c2ccc(Cl)cc2)n1 (stereo not drawn) | 14.9%
56 | C/C(=N\NC(=O)c1ccc(CN2CCOCC2)cc1)c1cccc([N+](=O)[O-])c1 | -19.5%
57 | CC(C)C(=O)NNC(=O)CN1CCN(c2nc(-c3ccccc3)cs2)CC1 | 15.7%
58 | COc1c(N2CCN(C(=S)NC3CC4CCC3C4)C(C)C2)c(F)cc2c(=O)c(C(=O)O)cn(C3CC3)c12 (stereo not drawn) | -11.4%
59 | Cc1ccc(C(=O)OCC(=O)NCc2ccc(F)cc2)o1 | 17.2%
60 | CC(=O)NC(CC(=O)OCC(=O)N1CCc2ccccc21)c1ccccc1 (stereo not drawn) | 8.71%
61 | CCc1c(C)nc(SCC(=O)CC(=O)OC(C)C)c(C#N)c1C | -5.39%
62 | COc1ccc(S(=O)(=O)N2CCN(Cc3cc(OC)c(O)c(OC)c3)CC2)cc1.O=C(O)C(=O)O | 4.57%
63 | CCN(Cc1ccccc1)C(c1ccccn1)c1nnnn1C1CCCCC1 (stereo not drawn) | -4%
64 | COC(=O)COc1ccc(C(=O)OC)cc1 | 10.1%
65 | Cc1ccc(-n2nnnc2SCC(=O)N2CCc3ccccc3C2)cc1 | -23.3%
66 | CC1(C)OC(C(=O)NC2CCCCC2)C(C(=O)NC2CCCCC2)O1 (stereo not drawn) | 21.5%

Row | SMILES | hERG current change (%, negative = inhibition) at 10uM
67 | CC1CCN(c2ccc3nnc(CCC(=O)N4CCN(c5ccc(F)cc5)CC4)n3n2)CC1 | -66.2%
68 | CC(=O)Nc1ccccc1OC(=O)N1CCOCC1 | 11.3%
69 | COc1ccccc1C1/C(=C(/O)c2ccc(C)cc2)C(=O)C(=O)N1CCN1CCOCC1 (stereo not drawn) | 0.459%
70 | Cc1ccc(S(=O)(=O)NC(CC(=O)NCC2CCCO2)c2ccccc2)cc1 (stereo not drawn) | 24.7%
71 | C/C(N)=C(/C#N)C(=O)CSc1nc2cc(Cl)ccc2c(=O)n1Cc1ccco1 | 16.8%
72 | COc1ccc(OCc2nnc(SC(C)C(=O)Nc3nccs3)n2-c2ccccc2)cc1 (stereo not drawn) | -10.4%
73 | COc1ccccc1NS(=O)(=O)c1ccc2oc(SCC(C)=O)nc2c1 | 9.88%
74 | COc1cccc(CNC(=O)CN(c2ccc(C(C)C)cc2)S(=O)(=O)c2c(C)noc2C)c1 | -4.72%
75 | CCN(CC)c1ccc(/C=N/NC(=O)c2cccc(S(=O)(=O)N3CCOCC3)c2)c(O)c1 | -17.5%
76 | COCCn1c(C)cc(C(=O)COC(=O)C23CC4CC(CC(O)(C4)C2)C3)c1C | 3.67%
77 | c1ccc(-n2nnnc2NC2CCCCCC2)cc1 | 9.74%
78 | CC(C)(C)c1ccc(S(=O)(=O)N2CCC(c3nc4ccc(Cl)cc4[nH]3)CC2)cc1 | -3.97%
79 | Cc1ccc(/C=C2/C(=O)ON=C2c2ccccc2)o1 | 5.52%
80 | NNC(=O)c1cccc(COc2ccc(Br)cc2)c1 | -27.4%
81 | Cc1cccc(NC(=O)CCc2nnc3ccc(N4CCC(C)CC4)nn23)n1 | 3.7%
82 | O=C(O)/C=C/C(=O)c1ccc2c(c1)NC(=O)CO2 | 20.6%
83 | N=C1SCC(=O)N1c1ccc(Cl)cc1 | 8.91%
84 | CCC(C)c1ccc(NC(=O)CC(C)=O)cc1 (stereo not drawn) | 4.93%
85 | CCCc1nc2c(s1)CCc1onc(-c3ccc(OC)cc3)c1-2 | 8.76%
86 | Cc1cc(C)c(S(=O)(=O)N2CCN(C(=O)c3cccs3)CC2)c(C)c1 | -28.5%
87 | COc1ccc(N2C(=O)CC(N3CCN(S(=O)(=O)c4c(C)cc(C)cc4C)CC3)C2=O)cc1 (stereo not drawn) | -12.2%

Source: paper PMC4336329 (PLoS ONE, 2015)
